Measurements reported in PubChem BioAssay (NCATS).
“And” between values parts separate entries of the source, which are not always exact repeats. Equal values may be shown once. This list was built around the results that the source calls inconclusive (neither active nor inactive); the mix of calls is not that of the screen. Where the call is inconclusive, the potency comes from a doubtful curve fit. The source made the active and inactive calls. The call rests on the fitted dose curve; in most records, active means well fitted curve in the direction sought with a large enough effect; inconclusive means small, poorly fitted or top-dose-only effect, or another doubt; inactive means no such curve, though single readings can be large; an effect the other way counts as inactive or inconclusive.

Columns and labels:
[1] = Viability qHTS for spleen associated tyrosine kinase inhibitor (SYKi) naive MV4-11 cells (AID 1963823); conditions: MV4-11 AML viability, CellTiter-Glo luminescence, 72 h; viability (% of control): at 45 µM (top of the series); further: nearly all actives have a fitted effect of over 40% in size
Method in brief: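 SYK inhibitor-naive MV4-11 cells, 500 per well, exposed to compounds for 72 hr at 37 C, 5% CO2. Viability read as CellTiter-Glo luminescence after 10 min at room temperature.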

[2] = Quantitative highthroughput screen to assess conditional lethalithy of NOMO1 cells grown in Human Plasma-Like Medium with dialyzed fetal bovine serum (HPLM+ds) (AID 1963878); conditions: NOMO1 AML cells in HPLM+ds, CellTiter-Glo viability, 48 h; viability: at 45.8 µM (top of the series); further: nearly all actives have a fitted effect of over 35% in size;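 on Viability: 100% = DMSO wells and 0% = empty wells on each plate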
Method in brief: (§1)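 Each medium arm—HPLM with 10% dialyzed FBS, or RPMI1640 with 5 mM glucose and 10% untreated or dialyzed FBS—was screened against an 11-point, 3-fold compound titration for 48 h at 37 °C, with CellTiter-Glo luminescence as endpoint.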

[3] = Quantitative highthroughput screen to assess conditional lethalithy of P12 Ichikawa cells grown in Human Plasma-Like Medium with dialyzed fetal bovine serum (HPLM+ds) (AID 1963879); conditions: Potency: viability; further: nearly all actives have a fitted effect of over 35% in size
Method in brief: as §1

[4] = Quantitative highthroughput screen to assess conditional lethalithy of P12 Ichikawa cells grown in RPMI1640 with untreated serum (RPMI+s) (AID 1963881); conditions: Potency: viability; further: nearly all actives have a fitted effect of over 35% in size
Method in brief: as §1

[5] = Quantitative highthroughput screen to assess conditional lethalithy of SEM cells grown in Human Plasma-Like Medium with dialyzed fetal bovine serum (HPLM+ds) (AID 1963882); further: nearly all actives have a fitted effect of over 35% in size
Method in brief: as §1

[6] = Quantitative highthroughput screen to assess conditional lethalithy of SEM cells grown in RPMI1640 with unreated serum (RPMI+s) (AID 1963883); conditions: SEM B-ALL cells, CellTiter-Glo viability, 48 h; viability: at 45.8 µM (top of the series); further: nearly all actives have a fitted effect of over 35% in size;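 on Viability: 100% = DMSO wells and 0% = empty wells without cells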
Method in brief: as §1

[7] = Quantitative highthroughput screen to assess conditional lethalithy of SEM cells grown in RPMI1640 with dialyzed fetal bovine serum (RPMI+ds) (AID 1963884); conditions: SEM B-ALL cells, RPMI+dialyzed FBS, CellTiter-Glo viability, 48 h; viability: at 45.8 µM (top of the series); further: nearly all actives have a fitted effect of over 35% in size
Method in brief: as §1

[8] = Cellular viability qHTS for adrenocortical cancer (ACC) cell line SW-13 (AID 1963989); conditions: SW-13 ACC cells viability, CellTiter-Glo, 48 h; activity (max response): stronger effect = lower value; further: nearly all actives have a fitted effect of over 65% in size;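 on activity (max response): cells grown in serum-free medium with ITS supplement; on the % scale 0 is the no-effect control and ±100 the full control effect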
Method in brief: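 SW-13 cells in ITS-supplemented serum-free DMEM were plated overnight, then exposed for 48 h at 37C to compound titrations (up to 46 uM final). Viability was read by CellTiter-Glo luminescence; four-parameter logistic fits gave IC50 and efficacy.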

[9] = Quantitative highthroughput screen to assess conditional lethalithy of P12 Ichikawa cells grown in RPMI1640 with dialyzed fetal bovine serum (RPMI+ds) (AID 1963880); conditions: Potency: P12-Ichikawa viability; further: nearly all actives have a fitted effect of over 35% in size;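 on Viability: 100% = DMSO wells and 0% = empty wells on each plate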
Method in brief: as §1
Potency means the concentration at half of the fitted maximal effect; tags describe the fitted curve by direction and shape.

For `Cc1cccc(C)c1OCC(=O)N[C@@H](Cc1ccccc1)[C@@H](O)C[C@H](Cc1ccccc1)NC(=O)[C@H](C(C)C)N1CCCNC1=O`, the Potency [1] was inconclusive: 29.9 µM [cytotoxic, single point], the Potency [2] was inconclusive: 23.5 µM [cytotoxic, single point] and the Potency [3] was inconclusive: 33.2 µM [cytotoxic, partial curve, poor fit]. The Potency [4] was inconclusive: 26.4 µM [cytotoxic, single point], the Potency [5] was inconclusive: 18.7 µM [cytotoxic, partial curve] and the Potency [6] was inconclusive: 20.9 µM [cytotoxic, partial curve]. The Potency [7] was inconclusive: 18.7 µM [cytotoxic, partial curve] and the Potency [8] was inconclusive: 29.1 µM [cytotoxic, single point].
With `c1cc(-c2cnn3cc(-c4ccc(OCCN5CCCCC5)cc4)cnc23)ccn1` the Potency [1] was active: 20.6 nM and inconclusive: 14.8 nM [cytotoxic, full curve], the Potency [2] was inconclusive: 33.2 µM [cytotoxic, single point] and the Potency [3] was inconclusive: 33.2 µM [cytotoxic, single point]. The Potency [4] was inconclusive: 37.2 µM [cytotoxic, single point] and the Potency [8] was active: 11.2 µM.
With `CC1=C(C(=O)O)N2C(=O)[C@@H](NC(=O)[C@H](N)C3=CCC=CC3)[C@H]2SC1` the Potency [1] was inconclusive: 33.5 µM [cytotoxic, single point], the Potency [2] was “inactive” and the Potency [3] was “inactive”.
For `CCN[C@H]1C[C@H](C)S(=O)(=O)c2sc(S(N)(=O)=O)cc21`, the Potency [1] was “inactive”, the Potency [2] was “inactive” and the Potency [3] was “inactive”. For the same compound, the Potency [9] was “inactive”, the Potency [5] was “inactive” and the Potency [6] was “inactive”.
For `C[C@@]12O[C@@H](C[C@]1(O)CO)n1c3ccccc3c3c4c(c5c6ccccc6n2c5c31)CNC4=O`, the Potency [1] was inconclusive: 0.0037 µM [cytotoxic, full curve], the Potency [2] was active: 0.833 µM and the Potency [9] was active: 0.833 µM. For the same compound, the Potency [4] was active: 0.662 µM, the Potency [5] was active: 0.166 µM and the Potency [7] was active: 0.105 µM. For the same compound, the Potency [8] was active: 2.82 µM.
For `Cn1c(=O)c(-c2c(Cl)cccc2Cl)cc2cnc(Nc3cccc(C(=O)O)c3)nc21`, the Potency [1] was active: 0.662 µM, the Potency [2] was inconclusive: 33.2 µM [cytotoxic, single point] and the Potency [3] was inconclusive: 20.9 µM [cytotoxic, partial curve, poor fit]. The Potency [9] was inconclusive: 18.7 µM [cytotoxic, single point], the Potency [5] was inconclusive: 14.8 µM [cytotoxic, partial curve] and the Potency [6] was active: 14.8 µM. The Potency [7] was inconclusive: 16.6 µM [cytotoxic, partial curve] and the activity (max response) [8] was inactive: -0.886%.
In the case of `Cc1cccc(-c2nn(C(=S)Nc3ccccc3)cc2-c2ccnc3ccccc23)n1`, the Potency [1] is reported as inconclusive: 23.5 µM [cytotoxic, partial curve], the Potency [2] is reported as “inactive” and the Potency [3] is reported as inconclusive: 13.2 µM [cytotoxic, partial curve, poor fit]. For the same compound, the Potency [9] was inconclusive: 9.35 µM [cytotoxic, single point] and the Potency [7] was inconclusive: 20.9 µM [cytotoxic, partial curve].
In the case of `COc1ccccc1OCC(O)COC(N)=O` (stereo not drawn), the Potency [1] is reported as inconclusive: 15 µM [cytotoxic, partial curve, poor fit], the Potency [2] is reported as inconclusive: 33.2 µM [cytotoxic, single point] and the Potency [3] is reported as inconclusive: 33.2 µM [cytotoxic, single point]. The Potency [9] was “inactive”.
In the case of `CCCCCN(C)CCC(O)(P(=O)(O)O)P(=O)(O)O`, the viability (% of control) [1] is reported as inactive: 73% [at 4.97 µM], the Potency [2] is reported as “inactive” and the Potency [3] is reported as “inactive”. The Potency [6] was inconclusive: 0.833 µM [cytotoxic, partial curve, poor fit].
With `Cc1ccc(C(=O)Nc2ccc(S(=O)(=O)O)c3cc(S(=O)(=O)O)cc(S(=O)(=O)O)c23)cc1NC(=O)c1cccc(NC(=O)Nc2cccc(C(=O)Nc3cc(C(=O)Nc4ccc(S(=O)(=O)O)c5cc(S(=O)(=O)O)cc(S(=O)(=O)O)c45)ccc3C)c2)c1` the Potency [1] was “inactive”, the Potency [2] was inconclusive: 1.87 µM [cytotoxic, full curve] and the Potency [3] was inconclusive: 5.26 µM [cytotoxic, partial curve]. For the same compound, the Potency [9] was inconclusive: 5.9 µM [cytotoxic, partial curve], the Potency [4] was inconclusive: 4.69 µM [cytotoxic, full curve] and the Potency [5] was inconclusive: 7.43 µM [cytotoxic, full curve]. For the same compound, the Potency [7] was inconclusive: 5.26 µM [cytotoxic, full curve] and the activity (max response) [8] was inactive: -19.9% and inactive: 5.07%.
